# Laboratory results taken from paper PMC4336329 (PLoS ONE, 2015).
# The campaign covered roughly 310,000 compounds. About 14,000 (4.5%) showed an effect of 50% or more. Effects have a minus sign here. The list shows a part of the results. Where a SMILES comes first, the peptide text is derived from it. [ ]: non-standard residue; d: D form. The star is where a group is joined. PhAc = O=C(Cc1ccccc1)*
# Biological target: human ether-à-go-go-related gene (hERG) potassium channel (human, UniProt Q12809)
# Sequence (Q12809 whole entry, looked up): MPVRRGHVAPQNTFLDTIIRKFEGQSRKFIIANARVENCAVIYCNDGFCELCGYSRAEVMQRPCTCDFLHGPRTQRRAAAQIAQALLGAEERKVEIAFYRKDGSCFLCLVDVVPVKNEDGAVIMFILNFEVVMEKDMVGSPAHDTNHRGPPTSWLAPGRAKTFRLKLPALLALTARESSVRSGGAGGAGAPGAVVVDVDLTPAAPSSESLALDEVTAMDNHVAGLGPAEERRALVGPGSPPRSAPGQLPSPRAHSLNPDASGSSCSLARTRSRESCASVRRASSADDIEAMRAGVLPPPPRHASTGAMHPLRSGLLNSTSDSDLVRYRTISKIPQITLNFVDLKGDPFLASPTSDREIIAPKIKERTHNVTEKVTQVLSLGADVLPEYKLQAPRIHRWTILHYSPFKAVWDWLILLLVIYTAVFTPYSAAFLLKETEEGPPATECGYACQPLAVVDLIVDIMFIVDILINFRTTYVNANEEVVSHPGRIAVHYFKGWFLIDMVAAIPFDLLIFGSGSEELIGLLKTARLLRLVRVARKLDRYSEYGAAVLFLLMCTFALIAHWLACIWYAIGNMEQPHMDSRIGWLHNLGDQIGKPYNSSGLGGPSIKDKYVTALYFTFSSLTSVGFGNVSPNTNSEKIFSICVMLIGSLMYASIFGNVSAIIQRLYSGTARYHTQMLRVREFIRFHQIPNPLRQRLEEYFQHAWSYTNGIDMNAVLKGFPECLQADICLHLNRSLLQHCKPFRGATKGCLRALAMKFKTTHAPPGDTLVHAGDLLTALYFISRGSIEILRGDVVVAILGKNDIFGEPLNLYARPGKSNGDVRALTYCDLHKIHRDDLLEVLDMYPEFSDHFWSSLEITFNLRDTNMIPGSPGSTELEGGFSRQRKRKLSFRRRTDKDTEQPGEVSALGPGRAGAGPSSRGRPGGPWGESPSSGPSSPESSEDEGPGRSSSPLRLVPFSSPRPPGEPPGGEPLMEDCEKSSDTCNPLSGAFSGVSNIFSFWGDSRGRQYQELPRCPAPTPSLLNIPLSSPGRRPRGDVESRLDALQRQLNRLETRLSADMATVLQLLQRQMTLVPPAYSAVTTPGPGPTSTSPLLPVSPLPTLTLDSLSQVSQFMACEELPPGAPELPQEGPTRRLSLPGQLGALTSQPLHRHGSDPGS
# Experiment: primary screen, population patch clamp on CHO cells stably expressing hERG
# 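Also: peak tail current of the secondary pulse compared with the same well before compound.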
row,SMILES,"hERG current change (%, negative = inhibition) at 10uM [%]"
1,CC(=O)Nc1cc(-c2ccc(Cl)cc2)nn1-c1ccccc1,-9.03
2,Cc1cc(-c2nnc(CCC(=O)NCc3ccc(F)c(F)c3)o2)no1,2.95
3,CCCCC(CC)C(=O)Nc1ncc([N+](=O)[O-])s1 (stereo not drawn),-20.5
4,O=C(NNC(=O)C1CCN(S(=O)(=O)c2cccc(C(F)(F)F)c2)CC1)C1CC1,0.383
5,COC(=O)C(C)Oc1ccc2c(c1)O/C(=C\c1cccc(Br)c1)C2=O (stereo not drawn),-46.9
6,Cc1ccsc1/C=N/NC(=O)Cn1nc(C)c([N+](=O)[O-])c1C,-2.17
7,Cn1cnnc1Sc1ccc(C(=O)OCC(=O)NCC(F)(F)F)cc1[N+](=O)[O-],0.021
8,O=S(=O)(NC1C2CC3CC(C2)CC1C3)c1ccccc1 (stereo not drawn),-14.5
9,Cc1c(OCC(=O)N2C[C@H]3C[C@@H](C2)c2cccc(=O)n2C3)ccc2c3c(c(=O)oc12)CCCC3,-13.5
10,CCn1cc([N+](=O)[O-])nc1C,1.09
11,CC(=O)Nc1ccc(SCC(=O)c2cc(C)n(C)c2C)cc1,1.76
12,Cc1cc(C)cc(OCC(=O)Nc2ccc3c(c2)C(=O)c2ccccc2C3=O)c1,22.7
13,O=S(=O)(NCc1ccccn1)c1ccccc1,-2.19
14,CCOc1ccc(Br)cc1S(=O)(=O)NCc1ccncc1,-3.01
15,N#CCc1c(C#N)c(N)nc(N2CCN(c3ccc(F)cc3)CC2)c1C#N,-63.9
16,CCOC(=O)Cc1csc(SC(C)C(=O)Nc2ccc(NC(C)=O)cc2)n1 (stereo not drawn),10.5
17,CCC1=NNC(=O)C(CC(=O)Nc2ccccc2)c2cc(OC)c(OC)cc21 (stereo not drawn),-3.6
18,N#Cc1ccccc1Sc1ccccc1C(=O)Nc1ccc(Br)cc1,18.9
19,Cc1ccc(-n2nc3c(=O)n(CCCC(=O)NCc4ccc(C)o4)nc(C)c3c2C)cc1,-12
20,C=CCn1c(COc2ccc(F)cc2)nnc1SCC(=O)NC(=O)NCc1ccco1,-31.2
21,S=C(Nc1ccccc1)Nn1cnnc1,0.242
22,O=C1C2CC=CCC2C(=O)N1c1ccc(NCCc2ccc(O)cc2)c([N+](=O)[O-])c1 (stereo not drawn),-25.1

row,SMILES,"hERG current change (%, negative = inhibition) at 10uM [%]"
1,CC(=O)N(CCN(C(C)=O)c1ccccc1)c1ccccc1,8.17
2,CCCCNC(=O)CC1N=C2c3ccccc3N=C(SCC(=O)Nc3cccc(OC)c3)N2C1=O (stereo not drawn),-10.6
3,O=C(NCc1ccc(OC(F)(F)F)cc1)C1CC2Cn3c(nc4ccccc43)C2N1Cc1ccccc1 (stereo not drawn),-62.1
4,C=CCn1c(O)c(C(C)=NC2CCN(Cc3ccccc3)CC2)c(=O)[nH]c1=O,-55.7
5,CS(=O)(=O)c1ccc2nc(NC(=O)c3ccc(N4CCCC4=O)cc3)sc2c1,13.3
6,CC(C)C[C@@H](NC(=O)[C@H]1CCCN1C(=O)Cc1ccccc1)C(N)=O (PhAc-[dP]-[dL]-NH2),31.7
7,CC(C)(C)OC(=O)N1CCC[C@@H]1C(=O)N1CCC(C(=O)O)CC1,27.3
8,O=C(O)C(=O)O.O=C(c1cccnc1)N1CCN(Cc2ccccc2Br)CC1,4.7
9,COC(=O)C1NC(=O)N2C(C(=O)OC)C(C)(C)S[C@H]12 (stereo partly drawn),21.7
10,CCOc1ccc(C2CC(c3ccccc3)Nc3nc(N)nn32)cc1 (stereo not drawn),-10.3
11,CCOC(=O)C1CCN(c2ncnc3nc[nH]c23)CC1,-9.84
12,CCOc1ccc(C(=O)Nc2ccccc2N2CCN(C(=O)c3ccccc3)CC2)cc1[N+](=O)[O-],-83.3
13,O=C(O)COc1ccccc1/C=C1\C(=O)Nc2ccc(Br)cc21,12.9
14,CSc1nsc(SC)c1C(N)=O,10.6
15,COC(=O)C1=C(C)N(Cc2ccc(C)cc2)C(=O)/C1=C\c1cc(OC)c(OC)c(OC)c1,9.73
16,CCOC(=O)c1c(NC(=O)c2ccc(S(=O)(=O)N(C)CC3CCCO3)cc2)sc2c1CCN(C)C2.Cl (stereo not drawn),-25.8
17,CCOC(=O)Cc1c(C)nc2c(-c3cccc(Br)c3)cnn2c1C,9.28
18,Cc1ccc(Nc2nnc(SCC(=O)NC3CC3)s2)cc1,9.41
19,CCc1nc(SCc2ccc(OC)c(Br)c2)n[nH]1,-1.48
20,Cc1ccc(S(=O)(=O)NCCCN(C)C)cc1.Cl,-10.7
21,Cn1cccc1/C=N/n1c(-c2ccccc2)n[nH]c1=S,-6.72
22,Cc1cc2nc3n(c2cc1C)CC1CC(C(=O)NCC2CC2)N(C)C31 (stereo not drawn),-1.83

row,SMILES,"hERG current change (%, negative = inhibition) at 10uM [%]"
1,Cc1ccc(C(=O)O)cc1NC(=O)Nc1cccc2ccccc12,16.8
2,CC(=O)Nc1ccc(S(=O)(=O)N(C)c2ccc(OCC(=O)OCC(=O)NCc3ccco3)cc2)cc1,9.09
3,CC(C)NC(=O)COC(=O)c1ccccc1CSC1=NCCS1,20.8
4,Cc1nnc2n(C3CCCCC3)c(=O)c3c4c(sc3n12)COC(C)(C)C4,2.31
5,COc1cccc(NC(=S)N2CCN(C)CC2)c1,10.8
6,COC(=O)CSc1nnc2n1C(C)(C)Cc1ccccc1-2,3.46
7,N#CC(/C(=N/S(=O)(=O)c1cccs1)c1ccccc1)c1nc2ccccc2[nH]1 (stereo not drawn),10.6
8,CN(Cc1ccccc1)C(=O)CN(Cc1ccccc1)S(C)(=O)=O,-4.6
9,Cn1c(SCC(=O)c2ccc3c(c2)NC(=O)CO3)nc2ccccc21,3.75
10,COC(=O)c1nnn(-c2nonc2N)c1COc1ccc(C=O)cc1OC,-13.9
11,CC(=O)Cc1nsc(NC(=O)c2ccc(Cl)cc2Cl)n1,23.7
12,OCCN1CCN(c2ncnc3c2c(-c2ccccc2)cn3-c2ccc(F)cc2)CC1,-74.3
13,Cc1nc2ccc(Br)cn2c1C(=O)N/N=C\c1ccc(C(C)C)cc1,21
14,COCCCn1c(SCC(N)=O)nnc1-c1ccccc1,-0.75
15,CS(=O)(=O)N(CC(=O)N1CCN(Cc2ccc3c(c2)OCO3)CC1)c1ccc2c(c1)OCO2,-58.9
16,O=C(NS(=O)(=O)Oc1ccc(F)c(Cl)c1)OC[C@@H]1CCCN2CCCCC12 (stereo partly drawn),14.7
17,CCc1nnc(NS(=O)(=O)c2ccc(N=CC3=C(O)CC(C)(C)CC3=O)cc2)s1,33.3
18,CC(C)Oc1ccc(C(=O)N2CCN(C(=O)c3ccco3)CC2)cc1,-29.6
19,O=C(Nc1cccc(C(=O)N2CCOCC2)c1)c1ccccc1Br,11.8
20,Cc1cc(C)c(C#N)c(N2CCOCC2)n1,5.48
21,COc1ccc(NC(=O)CSc2n[nH]c(-c3ccccn3)n2)cc1,14.9
22,CCn1c(SCC(=O)NCCOC)nc2sc3c(c2c1=O)CCCC3,4.73

row,SMILES,"hERG current change (%, negative = inhibition) at 10uM [%]"
1,O=C(CCN1C(=O)/C(=C/c2ccccc2Cl)SC1=S)NC1CCCC1,19.4
2,Cc1cc(/C=C2\C(=O)NC(=O)N(c3ccc(Cl)cc3)C2=O)c(C)n1C,8.22
3,O=C(N/N=C/c1ccccn1)c1ccncc1,13.7
4,CC(=C1C(=O)c2ccccc2C1=O)N1CCN(CCN=CC2=C(O)CC(C)(C)CC2=O)CC1,-42.3
5,CCOC(=O)/C(=N/Nc1ccc(C)cc1)S(=O)(=O)c1ccc(Cl)cc1,-1.52
6,C#CCOCCOCCOCCNc1nc(N2CCN(C(=O)[C@H](CCC(=O)O)n3cc(C(N)CO)nn3)CC2)nc(N2CCN(C(=O)[C@H](Cc3ccc(O)cc3)n3cc(C(N)CC(C)C)nn3)CC2)n1.Cl (stereo partly drawn),19.3
7,CSc1nc(NC(C)(C)C)nc(N2CCOCC2)n1,-4.03
8,O=C(O)c1ccccc1-c1ccccc1C(=O)Nc1nccs1,25.4
9,Nc1oc2ccc(F)cc2c(=O)c1C=O,20.5
10,CC(=O)NC1C(=O)N(CCN2CCOCC2)c2ccc(Cl)cc21.Cl (stereo not drawn),5.61
11,CCC(=O)Nc1nc2ccccc2n1Cc1ccc(Cl)cc1,9.4
12,O=C(O)CC1(CC(=O)Nc2cccc(C(=O)O)c2)CCCC1,20.8
13,Cc1ccc(COc2ccc(C(=O)NN)cc2)cc1,19.6
14,CCOC(=O)C(=O)NCc1ccc(/C=C2/N=C(C)C(C(=O)OCC)=C2O)o1,-11.3
15,CC(C)(C)NC(=O)Cn1c(=O)n(CC(=O)NC(C)(C)C)c2ccccc21,15.6
16,CCOC(=O)C1(Cc2ccc(OC)cc2)CCN(C(=O)CN2CCN(CC)CC2)CC1,-39.3
17,COc1ccccc1N=C(C)C1=C(O)CSC1=O,11.8
18,COC(=O)c1nc2n(n1)C(c1cccc(Cl)c1)C1=C(CCCC1=O)N2 (stereo not drawn),-2.87
19,CCCCCC(=O)Nc1cccc(-c2nc3ncccc3o2)c1,-37.8
20,CC1=C(C(=O)OCC(C)C)C(c2cc3c(cc2Br)OCO3)NC(=O)N1C (stereo not drawn),-35.8
21,COc1ccc(N2C(=O)C3C4C=CC(CC4)C3C2=O)c([N+](=O)[O-])c1 (stereo not drawn),-5.27
